# The full ranking holds about 33,000 sequences; the median of “E-score (-0.5 to 0.5)” is about -0.041, and the highest 2% start at about 0.37. The list shows a part of the results.
# Molecular target: T1, Ecm22 (UniProt Q05958)
# T1 sequence: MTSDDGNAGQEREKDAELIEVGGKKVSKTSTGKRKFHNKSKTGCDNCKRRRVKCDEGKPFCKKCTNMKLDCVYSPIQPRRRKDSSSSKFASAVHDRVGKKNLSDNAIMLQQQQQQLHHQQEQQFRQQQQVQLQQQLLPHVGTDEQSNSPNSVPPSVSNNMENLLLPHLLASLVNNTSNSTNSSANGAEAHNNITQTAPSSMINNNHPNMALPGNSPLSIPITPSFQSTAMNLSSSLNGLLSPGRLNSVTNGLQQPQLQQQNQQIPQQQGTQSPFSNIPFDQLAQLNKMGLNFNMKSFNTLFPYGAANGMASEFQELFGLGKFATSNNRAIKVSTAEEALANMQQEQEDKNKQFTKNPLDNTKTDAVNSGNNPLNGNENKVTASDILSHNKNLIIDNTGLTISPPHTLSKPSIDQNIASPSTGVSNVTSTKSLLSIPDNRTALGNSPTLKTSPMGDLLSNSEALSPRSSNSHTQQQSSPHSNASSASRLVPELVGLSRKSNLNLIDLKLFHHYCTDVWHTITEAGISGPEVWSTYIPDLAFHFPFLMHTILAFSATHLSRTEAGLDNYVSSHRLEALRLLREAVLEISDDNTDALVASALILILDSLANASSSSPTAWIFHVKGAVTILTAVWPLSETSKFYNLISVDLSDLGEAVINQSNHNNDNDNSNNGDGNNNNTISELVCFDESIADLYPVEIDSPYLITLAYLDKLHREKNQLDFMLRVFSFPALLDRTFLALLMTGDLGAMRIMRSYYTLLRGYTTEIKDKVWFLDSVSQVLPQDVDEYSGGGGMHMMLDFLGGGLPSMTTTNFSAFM
# Test: PBM E-score (8-mer binding enrichment) (E-score (-0.5 to 0.5)); higher = stronger / more preferred TF binding; most listed sequences are background and not binding sites
# Conditions: protein concentration: 200 nM; construct: GST-full length
# Outline: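 Detection of bound protein used fluorescent anti-GST, with scans normalised by masliner. The proteins were GST-tagged yeast transcription factors applied at about 100-200 nM to universal all-10-mer Agilent arrays made double-stranded by primer extension. Each ungapped eight-base word, pooled with its reverse complement, was scored with an E-score from the Universal PBM Analysis Suite.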
row,Sequence,PBM E-score
1,GCTGATTA,0.105
2,AGAAACGG,0.272
3,GACGCGTA,0.238
4,GGTAACAA,0.0669
5,CATACTAC,-0.0426
6,AAGTTGTC,-0.0591
7,AGTCGCCG,0.176
8,CAGCTCGA,-0.127
9,AAAATTCT,-0.0308
10,GAAATCAC,0.00502
11,CTGTTCCC,-0.325
12,CGGGGATC,0.128
13,AACAATAT,0.124
14,ACAAACCC,-0.217
15,AGGGGAGC,-0.0911
16,CACCGGAG,-0.319
17,GGACGGCC,-0.0815
18,CTAATTAA,-0.145
19,CTTAATGC,0.151
20,AAACAATT,-0.261
21,AAACGGTG,0.376
22,TACGCCCA,0.0201
23,CATCCTTC,-0.132
24,CGGTATAG,0.0179

row,Sequence,PBM E-score
1,AACCACTT,0.0041
2,AGCTTCCC,-0.0444
3,TGCTACAA,-0.219
4,CATACAAC,-0.0403
5,CCCCTCAG,-0.157
6,AACCTGGA,-0.167
7,CTCCTACA,-0.279
8,CCGGATTC,0.0569
9,ATGCTCAC,-0.0464
10,CCTTCGCC,-0.186
11,ACATCTCC,-0.0349
12,ATTCGCGG,-0.00497
13,AAGTCTAA,-0.21
14,CAATTTAG,-0.119
15,TCTCATAA,-0.0348
16,TGTAGAAA,-0.108
17,CGGGTCGC,0.187
18,TAGGTAAA,-0.0335
19,ATTAGGGC,-0.297
20,AATATCCC,-0.145
21,CAAATGCG,0.0144
22,ATTGAACC,-0.206
23,AGCCGCAC,-0.0313
24,CATCGTTC,0.428

row,Sequence,PBM E-score
1,AACGTCAG,-0.231
2,AACGCTGT,-0.0173
3,TGAGGGCA,-0.129
4,GGGTCAAC,-0.0954
5,ACATCTAC,-0.0505
6,GGGTTCGA,0.0642
7,GCAGTTAA,-0.0391
8,ATTCCTTG,-0.0666
9,TCCTACCA,-0.288
10,GAAGGAAA,-0.0206
11,CCTGACGA,0.0146
12,CGCCCTTC,-0.089
13,CTAGCCTA,-0.358
14,TAGCGTAA,0.0983
15,AGGACGGG,-0.147
16,AGTATTGC,-0.0643
17,CTCTGCGC,-0.0111
18,GGTACAAC,0.0714
19,CTCATTGC,-0.173
20,GAATTTCA,-0.167
21,CCCTCTCG,0.0417
22,CCAGGCAC,-0.208
23,TTCGGAAA,0.157
24,CAACCAAC,-0.168

row,Sequence,PBM E-score
1,AGCCTCCA,-0.24
2,ATTAGATA,0.0888
3,GGTGTCAA,-0.18
4,GAACTTCA,-0.156
5,GAGATAGC,-0.103
6,AGTGCCGA,-0.019
7,CAGAGTTC,-0.117
8,CCCGCTAG,-0.13
9,GCTAAAAC,-0.0742
10,CGCCTCAC,-0.0695
11,AAAAACGT,-0.0235
12,AGGCTTAC,-0.0801
13,CGGCATAC,0.0899
14,CACACGAC,0.211
15,AAGTTGTG,-0.00808
16,ATTACACG,0.195
17,AACAAATA,0.114
18,AGGGTAAG,-0.108
19,AGATGAAT,-0.242
20,TAAACGCA,0.292
21,TCCCACGA,-0.043
22,CCGGACTA,-0.175
